From paper PMC4336329 (PLoS ONE, 2015)
The whole screen tested about 310,000 compounds, of which about 2,200 (0.71%) showed an effect of 50% or more. The effect is printed as a negative number. This is one part of the list.

target: human ether-à-go-go-related gene (hERG) potassium channel (human, UniProt Q12809); assay: primary screen, population patch clamp on CHO cells stably expressing hERG
Sequence (Q12809 whole entry, looked up): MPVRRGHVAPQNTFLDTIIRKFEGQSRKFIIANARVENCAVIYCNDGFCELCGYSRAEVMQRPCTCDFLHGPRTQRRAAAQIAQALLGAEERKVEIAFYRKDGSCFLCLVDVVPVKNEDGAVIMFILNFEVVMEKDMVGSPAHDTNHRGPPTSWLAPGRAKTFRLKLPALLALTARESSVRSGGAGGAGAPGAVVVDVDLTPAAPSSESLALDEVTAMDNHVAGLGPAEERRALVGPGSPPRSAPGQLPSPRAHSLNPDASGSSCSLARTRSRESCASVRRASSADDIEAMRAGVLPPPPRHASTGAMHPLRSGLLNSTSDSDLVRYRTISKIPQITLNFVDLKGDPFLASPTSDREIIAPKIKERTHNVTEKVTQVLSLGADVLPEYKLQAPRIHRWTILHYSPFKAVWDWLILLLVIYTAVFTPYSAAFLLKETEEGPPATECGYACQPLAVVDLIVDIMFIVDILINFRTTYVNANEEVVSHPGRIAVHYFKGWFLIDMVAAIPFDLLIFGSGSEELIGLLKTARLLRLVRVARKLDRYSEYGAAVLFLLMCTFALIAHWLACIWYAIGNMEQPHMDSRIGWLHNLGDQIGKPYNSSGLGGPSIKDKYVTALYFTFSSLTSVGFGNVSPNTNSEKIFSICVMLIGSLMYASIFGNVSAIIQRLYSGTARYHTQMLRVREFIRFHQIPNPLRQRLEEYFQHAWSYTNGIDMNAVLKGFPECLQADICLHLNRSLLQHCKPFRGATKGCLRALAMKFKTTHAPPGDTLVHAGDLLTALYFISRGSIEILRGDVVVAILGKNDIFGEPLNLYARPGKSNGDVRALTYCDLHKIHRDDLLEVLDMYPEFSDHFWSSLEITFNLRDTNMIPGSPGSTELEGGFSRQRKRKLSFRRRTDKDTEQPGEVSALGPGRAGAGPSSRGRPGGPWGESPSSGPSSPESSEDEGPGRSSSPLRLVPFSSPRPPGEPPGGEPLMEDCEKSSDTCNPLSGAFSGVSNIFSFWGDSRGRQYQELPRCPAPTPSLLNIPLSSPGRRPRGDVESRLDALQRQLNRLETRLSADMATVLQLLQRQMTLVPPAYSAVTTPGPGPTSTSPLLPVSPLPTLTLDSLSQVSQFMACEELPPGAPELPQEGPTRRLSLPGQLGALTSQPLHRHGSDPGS

Going from `C/C(CC(=O)Nc1c(C)cc(C)cc1C)=N\NC(=O)OC(C)(C)C` to `CN(C)Cc1cc(C(C)(C)C)c(O)c(C(C)(C)C)c1`, the “hERG current change (%, negative = inhibition) at 1uM” value rises from 1.02% to 5.96%.

Compared with `Cc1cc(C)n(CCCNC(=O)c2ccc(C)o2)n1`, `NNC(=O)c1ccc(COc2ccc(Br)cc2)o1` is higher in “hERG current change (%, negative = inhibition) at 1uM” value: 10.4% for the first, 11.1% for the second.

Going from `CC(C)(C)SCCNC(=O)CN(c1ccc(F)cc1)S(C)(=O)=O` to `CC(C)(C)SCCNC(=O)/C=C/c1ccccc1`, the “hERG current change (%, negative = inhibition) at 1uM” value falls from 8.14% to 3.04%.

First: CC(=O)/C(N=Nc1nc2c([nH]1)c(=O)n(C)c(=O)n2C)=C(\C)O
Second: Cn1c(/C=C/c2cccc([N+](=O)[O-])c2)c([N+](=O)[O-])c(=O)n(C)c1=O
The “hERG current change (%, negative = inhibition) at 1uM” value of the first is higher: 11.3% for the first, 4.05% for the second.

Compared with `CCn1ncc(CNC(=O)CCSc2nc(-c3ccco3)cc(C(F)(F)F)n2)c1C`, `O=C(c1cnn2c1NC(c1ccco1)CC2C(F)(F)F)N1CCN(c2cccc(Cl)c2)CC1` (stereo not shown) is lower in “hERG current change (%, negative = inhibition) at 1uM” value: 5.52% for the first, -4.04% for the second.

Compared with `COc1cc(OC)cc(C(=O)NCCn2ccc3ccccc32)c1`, `COc1ccc(OC)c(NC(=O)CN2C(=O)C(=O)N(Cc3ccccc3)C2=O)c1` is higher in “hERG current change (%, negative = inhibition) at 1uM” value: 5.82% for the first, 7.21% for the second.

Compared with `CC(C(=O)N1CCc2ccccc21)N1CCN(S(=O)(=O)c2ccc(C(F)(F)F)cc2)CC1` (stereo not shown), `CCN(C(=O)C(C)Sc1ccc(S(=O)(=O)N2CCN(C)CC2)cn1)c1ccccc1` (stereo not shown) is lower in “hERG current change (%, negative = inhibition) at 1uM” value: 7.76% for the first, -3.06% for the second.

First: N=c1c(S(=O)(=O)c2ccccc2)cc2c(=O)n3ccccc3nc2n1C1CCCC1
Second: O=C(Nc1cccc(S(=O)(=O)N2CCCC2)c1)c1cc(=O)[nH]c2ccccc12
The “hERG current change (%, negative = inhibition) at 1uM” value of the first is higher: 8.93% for the first, 3.03% for the second.

First: S=C(NCc1ccco1)N1CCN(c2cccc(Cl)c2)CC1
Second: O=C(CCN1CCN(c2ccc([N+](=O)[O-])cc2)CC1)c1ccc(Cl)cc1
The “hERG current change (%, negative = inhibition) at 1uM” value of the first is higher: 10.3% for the first, -40.5% for the second.

First: N#CCCn1nc(-c2ccccc2)c2ccccc2c1=O
Second: O=C(CN1C(=O)c2ccccc2C1=O)Nc1ccccc1
The “hERG current change (%, negative = inhibition) at 1uM” value of the first is lower: -1.49% for the first, 6.76% for the second.

Going from `COc1cc(OC)c(NC(=O)c2ccco2)cc1Cl` to `COc1ccc(CCN2CC(C(=O)Nc3ccc(S(C)(=O)=O)cc3)CC2=O)cc1OC` (stereo not shown), the “hERG current change (%, negative = inhibition) at 1uM” value rises from -3.85% to 5.63%.

Going from `O=C(COC(=O)C1CCN(S(=O)(=O)c2ccc3c(c2)OCCO3)CC1)Nc1cccc2ccccc12` to `O=C(CSc1nc(Cc2ccccc2)nc2ccccc12)c1ccc2c(c1)OCCO2`, the “hERG current change (%, negative = inhibition) at 1uM” value falls from 23.3% to -0.271%.

Going from `COc1ccc(-c2nn(-c3ccccc3)cc2/C=N/NC(=O)c2cccc(S(=O)(=O)Nc3ccccc3OC)c2)cc1` to `COc1ccc(C(=O)Nc2ccccc2C(=O)Nc2ccc(C(=O)O)cc2)cc1`, the “hERG current change (%, negative = inhibition) at 1uM” value rises from 10.9% to 15%.

First: COc1ccc(OCC(=O)N2CCc3c([nH]c4ccccc34)C2c2ccccn2)cc1 (stereo not shown)
Second: COC(=O)C1=C(COc2ccccc2)NC(=O)NC1c1ccc(Br)cc1 (stereo not shown)
The “hERG current change (%, negative = inhibition) at 1uM” value of the first is higher: 23.2% for the first, 12% for the second.

First: Cc1cc(C(=O)COC(=O)c2cccs2)c(C)n1-c1c(C)n(C)n(-c2ccccc2)c1=O
Second: CCOC(=O)c1sc(=S)n(-c2ccccc2)c1C
The “hERG current change (%, negative = inhibition) at 1uM” value of the first is lower: 13.2% for the first, 13.5% for the second.

Going from `O=C(Nc1ccc(N2CCOCC2)cc1)C1CCCN(S(=O)(=O)c2ccccc2)C1` (stereo not shown) to `Cc1cccc(N(CC(O)CN2CCOCC2)S(=O)(=O)c2ccccc2)c1` (stereo not shown), the “hERG current change (%, negative = inhibition) at 1uM” value rises from 10.1% to 11.2%.

Going from `COc1ccccc1C(=O)Nc1nnc(S(=O)(=O)N2CCC(C)CC2)s1` to `NC(=O)c1ccc(CN2CCC(Cc3ccccc3)CC2)cc1`, the “hERG current change (%, negative = inhibition) at 1uM” value falls from 12.4% to -18.2%.

First: CCN(CCO)C(=S)Nc1cc(S(=O)(=O)N(C)C)ccc1C
Second: CCCCN(Cc1cc2ccccc2[nH]c1=O)S(=O)(=O)c1ccc(C)cc1
The “hERG current change (%, negative = inhibition) at 1uM” value of the first is higher: 9.03% for the first, -3.85% for the second.

Compared with `N#CCc1ccc(OC(=O)c2cccnc2Cl)cc1`, `O=C(CSCc1ccc(Cl)cc1)N/N=C/c1ccc(Cl)cc1Cl` is lower in “hERG current change (%, negative = inhibition) at 1uM” value: 9.48% for the first, 5.12% for the second.

First: OCc1ccc2c(c1)c(-c1ccc3c(c1)OCCO3)c(-c1ccccc1)n2-c1ccccc1
Second: Clc1ccc(C[n+]2c(-c3ccccc3)cc(-c3ccccc3)cc2-c2ccccc2)cc1.[O-][Cl+3]([O-])([O-])[O-]
The “hERG current change (%, negative = inhibition) at 1uM” value of the first is higher: 8.01% for the first, -25.5% for the second.

Compared with `O=C(c1cccnc1Nc1ccc2c(c1)CCC2)N1CCOCC1`, `Cc1cc(C)c(C)c(S(=O)(=O)NCc2ccc(C(=O)N3CCOCC3)cc2)c1C` is higher in “hERG current change (%, negative = inhibition) at 1uM” value: 0.266% for the first, 23.1% for the second.

Going from `O=C1c2ccccc2CCCC12N=NCC2c1cccc2ccccc12` (stereo not shown) to `O=C(CN1C(=O)C(c2ccccc2)Oc2cccnc21)NCc1ccccc1F` (stereo not shown), the “hERG current change (%, negative = inhibition) at 1uM” value falls from 13.6% to 13%.

Going from `CCc1nc(NCc2ccco2)c2oc3ccccc3c2n1.Cl` to `Cl.O=C(Nc1nc2ccccc2s1)c1ccc2c(c1)OCO2`, the “hERG current change (%, negative = inhibition) at 1uM” value falls from 6.18% to -9.95%.

First: O=C(Cn1ccc2ccccc2c1=O)NCCC(=O)N1CCN(C(=O)c2ccco2)CC1
Second: O=C(COC(=O)c1cc(-c2cccc(Br)c2)nc2ccccc12)NCC1CCCO1 (stereo not shown)
The “hERG current change (%, negative = inhibition) at 1uM” value of the first is lower: 0.326% for the first, 15.4% for the second.

Going from `Cc1cccc(C(=O)NC2CC3CCCC(C2)N3Cc2ccccc2)c1` (stereo not shown) to `CSc1ccc(Cl)c(C(=O)NC2CCCC2)c1`, the “hERG current change (%, negative = inhibition) at 1uM” value rises from -6.63% to 9.17%.

Going from `CS(=O)(=O)N(CC(=O)N1CCOCC1)Cc1ccc(Cl)cc1` to `COc1ccc(C(CC(=O)N2CCN(C)CC2)NC(=O)C(F)(F)F)cc1` (stereo not shown), the “hERG current change (%, negative = inhibition) at 1uM” value rises from 8.23% to 12.7%.

Compared with `Cc1ccc2nc(C)cc(C(=O)OCC(=O)c3ccc(Cl)c([N+](=O)[O-])c3)c2c1`, `CCN(CC)S(=O)(=O)c1ccc(C(=O)OCC(=O)Nc2ccc(-c3nc4ccc(C)cc4s3)cc2)cc1` is lower in “hERG current change (%, negative = inhibition) at 1uM” value: 7% for the first, -1.58% for the second.

Compared with `COc1ccc(CSc2nnnn2Cc2ccccc2)cc1OC`, `COc1ccc(CCN(Cc2ccccn2)C(=S)Nc2cccc(SC)c2)cc1OC` is lower in “hERG current change (%, negative = inhibition) at 1uM” value: -6.92% for the first, -24.1% for the second.

First: CCOC(=O)c1c(C)[nH]c(C(=O)OCCOc2ccc(Cl)cc2)c1C
Second: CNCCOc1ccccc1OC(C)C.O=C(O)C(=O)O
The “hERG current change (%, negative = inhibition) at 1uM” value of the first is lower: 11.2% for the first, 14% for the second.

Going from `O=C(Nc1ccccc1)c1cccnc1Nc1ccccc1` to `O=C(OCC(=O)N(CCc1ccccc1)Cc1ccccc1)c1ccccc1[N+](=O)[O-]`, the “hERG current change (%, negative = inhibition) at 1uM” value rises from 1.67% to 15.8%.

First: COc1cc(C(=O)c2cocc2C(=O)c2ccc3c(c2)OCO3)cc(OC)c1OC
Second: COc1ccccc1NC(=O)N(Cc1cc2cc(OC)c(OC)cc2[nH]c1=O)CC1CCCO1 (stereo not shown)
The “hERG current change (%, negative = inhibition) at 1uM” value of the first is lower: 7.35% for the first, 7.64% for the second.

Compared with `O=c1ccn(-c2cccc(C(F)(F)F)c2)nc1-c1ccn(-c2cccc(Cl)c2)n1`, `O=C1CN(C(=O)c2ccccc2F)C(c2ccc(F)cc2)c2cc(F)ccc2N1` (stereo not shown) is higher in “hERG current change (%, negative = inhibition) at 1uM” value: 4.89% for the first, 11.9% for the second.

Compared with `CN(C)c1oc(-c2cccs2)nc1C#N`, `N#C/C(=C(/O)c1ccc([N+](=O)[O-])o1)c1nc2ccccc2[nH]1` is higher in “hERG current change (%, negative = inhibition) at 1uM” value: 9.3% for the first, 13.3% for the second.

Compared with `CCC(=NCc1cccnc1)c1c(O)n(Cc2ccccc2)c(=O)[nH]c1=O`, `CCC(=O)CC(c1ccccc1)c1c([O-])c2ccccc2sc1=O.[Na+]` (stereo not shown) is higher in “hERG current change (%, negative = inhibition) at 1uM” value: -18.9% for the first, 13.3% for the second.

First: CCC(C)C1NC(=O)C(C(C)=O)=C1O (stereo not shown)
Second: CCSc1nnc(NC(=O)CSc2nc3c(c(=O)n2CCOC)SC(C)C3)s1 (stereo not shown)
The “hERG current change (%, negative = inhibition) at 1uM” value of the first is higher: 2.47% for the first, 0.21% for the second.

Compared with `COc1ccc(N2CCN(CC(O)COc3ccc(C)c(C)c3)CC2)cc1.Cl` (stereo not shown), `CN1CCN(c2ccc(NC(=S)NC(=O)c3cccc4c(Cl)cccc34)cc2)CC1` is higher in “hERG current change (%, negative = inhibition) at 1uM” value: -5.14% for the first, 8.78% for the second.

First: O=C(O)CCCC(=O)Nc1cccc2cccnc12
Second: CC(=O)NCCOc1cccc2cccnc12
The “hERG current change (%, negative = inhibition) at 1uM” value of the first is lower: 11.4% for the first, 13.9% for the second.

First: COC(=O)c1cccc(NC(=O)CSc2ncn[nH]2)c1
Second: Cc1nnc(SCC(=O)c2ccc([N+](=O)[O-])cc2)s1
The “hERG current change (%, negative = inhibition) at 1uM” value of the first is higher: 4.14% for the first, -0.0441% for the second.

Compared with `O=C(NC1CCS(=O)(=O)C1)OC1CCCCC1` (stereo not shown), `O=C(NCC1CCCO1)c1cc(C(=O)C2CC2)c[nH]1` (stereo not shown) is lower in “hERG current change (%, negative = inhibition) at 1uM” value: 4.72% for the first, 2.6% for the second.

Going from `CC(C)(C)NC(=O)/C(=C\c1ccco1)NC(=O)c1ccco1` to `CC(C)N=C(N)N=C(N)Nc1ccc(Cl)cc1.Cl`, the “hERG current change (%, negative = inhibition) at 1uM” value falls from 13.1% to 7.28%.

Going from `COc1cc(C2C(Oc3ccccc3C)C(=O)N2Cc2ccc(F)cc2)cc(OC)c1OC` (stereo not shown) to `COc1cc(S(=O)(=O)NCCOC23CC4CC(CC(C4)C2)C3)c(OC)cc1Cl`, the “hERG current change (%, negative = inhibition) at 1uM” value rises from 7.35% to 12.3%.

Going from `CN(C)c1ccc(C(=O)N/N=C/C23CC[C@@H](O)CC2(O)CC[C@@H]2[C@@H]3CCC3(C)C(C4=CC(=O)OC4)CCC23O)cc1` (stereo partly shown) to `O=C(NC1CC1)C1CCN(C2CCN(C(=O)/C=C/c3cccc(F)c3F)CC2)CC1`, the “hERG current change (%, negative = inhibition) at 1uM” value falls from 10.8% to 6.42%.

In the case of `Cc1cc(S(=O)(=O)N2CCC3(CC2)OCCN3S(=O)(=O)c2cccs2)ccc1F`, the “hERG current change (%, negative = inhibition) at 1uM” value is reported as -5.99%.
